# Laboratory results published in PubChem BioAssay AID588342 (National Center for Advancing Translational Sciences (NCATS), 2011).
# The campaign covered roughly 360,000 compounds. About 25,000 (6.9%) were called active. Calls follow the shape of the dose curve; as a rule, active = well fitted inhibition curve with a large enough effect; inconclusive = small, poorly fitted or top-dose-only effect; inactive = flat fitted curve, though single readings scatter. Inconclusive results, whose numbers are uncertain, are shown. Where the call is inconclusive, the potency comes from a doubtful curve fit.
# Target: Luciferin 4-monooxygenase (Photinus pyralis) (UniProt P08659)
# Sequence of UniProt P08659 (P08659 whole entry, looked up): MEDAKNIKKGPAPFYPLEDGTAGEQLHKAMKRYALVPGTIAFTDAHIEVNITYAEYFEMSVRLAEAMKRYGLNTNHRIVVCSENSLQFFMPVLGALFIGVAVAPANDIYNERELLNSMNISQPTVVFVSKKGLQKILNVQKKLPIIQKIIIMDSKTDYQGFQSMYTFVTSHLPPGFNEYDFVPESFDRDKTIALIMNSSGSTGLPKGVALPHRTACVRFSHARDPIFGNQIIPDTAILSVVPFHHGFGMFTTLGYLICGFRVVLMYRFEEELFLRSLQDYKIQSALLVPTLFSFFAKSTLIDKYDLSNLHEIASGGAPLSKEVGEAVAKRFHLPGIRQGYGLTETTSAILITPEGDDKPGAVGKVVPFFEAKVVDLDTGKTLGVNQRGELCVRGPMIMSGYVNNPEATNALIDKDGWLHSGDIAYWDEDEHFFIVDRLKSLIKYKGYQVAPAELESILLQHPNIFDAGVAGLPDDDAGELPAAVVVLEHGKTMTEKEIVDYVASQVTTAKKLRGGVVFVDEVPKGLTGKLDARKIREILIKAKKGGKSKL
# Experiment: qHTS profiling assay for firefly luciferase inhibitor/activator using purifed enzyme and Km concentrations of substrates (counterscreen for miR-21 project); also: nearly all actives have a fitted effect of over 55% in size
# Settings: purified FLuc, luminescence inhibition; series mostly up to 57.5 µM
# Method in brief: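 Purified P. pyralis luciferase, 10 nM final, with Km-level 10 uM D-luciferin and 10 uM ATP in 50 mM Tris acetate pH 7.5, 10 mM Mg acetate, 0.01% Tween-20, 0.05% BSA; 6-point qHTS titration about 60 µM downward; luminescence read.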
# Potency is read from the fitted curve at half-maximal effect; tags tell the direction and shape of the fitted curve.
row,SMILES,Potency
1,O=C1NN(c2ccc(F)c(Cl)c2)C(=O)/C1=C\c1cccc(OC(=O)c2cccs2)c1,"inconclusive: 26.9 µM [inhibitor, single point]"
2,O=C(NN1C(=O)/C(=C/c2ccc(O)cc2)SC1=S)c1ccccc1O,"inconclusive: 16.9 µM [inhibitor, single point]"
3,COc1cccc(C2C3=C(N=c4s/c(=C\c5ccc(OCC(=O)O)cc5)c(=O)n42)c2ccccc2CC3)c1 (configuration not stated),"inconclusive: 23.9 µM [inhibitor, single point]"
4,O=C(Nc1ccc(-c2nc3ccccc3[nH]2)cc1)c1ccccc1NS(=O)(=O)c1ccc(F)cc1,"inconclusive: 37.9 µM [inhibitor, single point]"
5,COc1cc(NS(=O)(=O)c2ccc(NC(=S)NC(=O)c3sc4ccccc4c3Cl)cc2)nc(OC)n1,"inconclusive: 23.9 µM [inhibitor, single point]"
6,COc1cc(/C=N/Nc2ccc(Cl)c(C(=O)O)c2)ccc1OC(=O)c1ccc(F)cc1,"inconclusive: 30.1 µM [inhibitor, partial curve, poor fit]"
7,CCOc1cc(/C=C2/C(=N)N3C(=NC2=O)SN=C3S(C)(=O)=O)ccc1OS(=O)(=O)c1ccccc1,"inconclusive: 26.9 µM [inhibitor, single point]"
